Data published in PMC4336329 (PLoS ONE, 2015).
In all, about 310,000 compounds went through this assay and about 2,200 (0.71%) showed an effect of 50% or more. Effects have a minus sign here. Some of the results follow.

Molecular target: human ether-à-go-go-related gene (hERG) potassium channel (human, UniProt Q12809)
Experiment: primary screen, population patch clamp on CHO cells stably expressing hERG

Chain of human ether-à-go-go-related gene (hERG) potassium channel (Q12809 whole entry, looked up): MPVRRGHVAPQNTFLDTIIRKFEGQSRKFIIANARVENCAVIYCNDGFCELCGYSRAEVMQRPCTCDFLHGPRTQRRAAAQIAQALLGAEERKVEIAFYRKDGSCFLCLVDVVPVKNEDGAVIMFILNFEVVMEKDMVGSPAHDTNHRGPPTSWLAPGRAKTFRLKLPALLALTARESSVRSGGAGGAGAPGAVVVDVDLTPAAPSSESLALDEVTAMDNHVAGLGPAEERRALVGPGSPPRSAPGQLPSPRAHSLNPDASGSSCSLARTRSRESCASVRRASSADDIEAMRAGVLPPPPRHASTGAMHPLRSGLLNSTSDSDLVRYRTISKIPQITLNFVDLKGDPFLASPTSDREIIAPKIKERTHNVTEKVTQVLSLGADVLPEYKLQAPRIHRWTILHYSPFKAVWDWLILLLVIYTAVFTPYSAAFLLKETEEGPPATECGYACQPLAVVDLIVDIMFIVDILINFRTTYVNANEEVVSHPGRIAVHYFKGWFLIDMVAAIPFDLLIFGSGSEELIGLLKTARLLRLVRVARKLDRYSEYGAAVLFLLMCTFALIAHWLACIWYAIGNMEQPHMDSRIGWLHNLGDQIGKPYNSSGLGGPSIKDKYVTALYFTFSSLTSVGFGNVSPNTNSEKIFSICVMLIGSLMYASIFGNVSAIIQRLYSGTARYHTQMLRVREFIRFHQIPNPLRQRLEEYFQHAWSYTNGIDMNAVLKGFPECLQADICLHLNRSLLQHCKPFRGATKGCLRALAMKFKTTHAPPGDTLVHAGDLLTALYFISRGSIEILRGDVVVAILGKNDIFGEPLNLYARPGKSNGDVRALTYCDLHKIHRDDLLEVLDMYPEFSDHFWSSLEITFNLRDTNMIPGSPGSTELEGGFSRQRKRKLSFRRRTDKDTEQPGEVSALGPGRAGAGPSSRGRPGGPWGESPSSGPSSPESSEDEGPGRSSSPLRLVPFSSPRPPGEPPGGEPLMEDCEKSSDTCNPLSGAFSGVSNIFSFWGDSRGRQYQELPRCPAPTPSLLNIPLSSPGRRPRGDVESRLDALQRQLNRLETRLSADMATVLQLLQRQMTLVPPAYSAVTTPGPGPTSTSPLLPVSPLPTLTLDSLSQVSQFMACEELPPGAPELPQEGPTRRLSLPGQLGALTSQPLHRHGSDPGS

Compound | hERG current change (%, negative = inhibition) at 1uM
Nc1c(C(=O)Nc2cccc(F)c2)nnn1-c1ccc2c(c1)OCCO2 | 14.2%
O=C(N/N=C\c1cn[nH]c1-c1ccccc1)c1cccs1 | 12.2%
O=C(COc1ccc(/C=C\[N+](=O)[O-])cc1)N1CCOCC1 | 9.7%
O=c1cc(O)nc(SC23CC4CC(CC(C4)C2)C3)[nH]1 | 10.2%
Cc1cccc(NC(=S)N2CCN(c3ccccc3)CC2)c1 | 15.4%
Cc1ccc(S(=O)(=O)c2c(C)cc(C)[nH]c2=O)c(C)c1 | 6.96%
O=C(c1cccc(S(=O)(=O)Nc2ccc(F)cc2)c1)N1CCOCC1 | 14%
Cc1ccc(Cn2ncn(-c3ccccc3)c2=O)cc1 | 10%
CCOC(=O)NNC1CC(=O)N(c2ccc(OC)cc2)C1=O (stereo not drawn) | 17.2%
O=C1N/C(=N\N=C\c2ccccn2)SC1Cc1cccc(SC(F)F)c1 (stereo not drawn) | 3.61%
COc1ccc(CC(=O)NNc2ncnc3c2cnn3-c2ccccc2)cc1 | 11.4%
CCOC(=O)c1ccc(NC(=O)CSC2=NN3CCCC(=O)N=C3S2)cc1 | 15.7%
S=C(NCC1CCCO1)N1CCN(c2nc(-c3ccccc3)cs2)CC1 (stereo not drawn) | 11.6%
CN(CC(=O)NCCCN1CCOCC1)S(=O)(=O)c1ccc(F)cc1 | 15.7%
O=C(O)CC/C(=N/Nc1ncc(C(F)(F)F)cc1Cl)C(=O)O | 12.5%
Cc1ccc(NC(=O)COc2ccccc2)cc1S(=O)(=O)N1CCCCCC1 | 4.39%
C/C(Cl)=C\Cn1c(Nc2cccc(C)c2)nc2c1c(=O)n(C)c(=O)n2C | 5.85%
CCN(CC)C(=O)CSc1nnc2cc(C)c3ccccc3n12 | 14.6%
O=C(Cn1ccc(=O)[nH]c1=O)NCCO | 1.18%
COc1ccc(/C=C/C(=O)Oc2ccc(C=O)cc2OC)cc1 | 10.3%
Cc1nc(Nc2nc(-c3ccccc3)cc(=O)[nH]2)nc2ccccc12 | -5.19%
CCOC(=O)c1nn(-c2ccc(Cl)cc2)c2nc(Nc3ccccc3)cc(=O)n12 | 16.3%
O=C(COc1ccccc1)Nc1nnc(-c2ccc(F)cc2)o1 | 0.983%

Compound | hERG current change (%, negative = inhibition) at 1uM
CCOC(=O)C(NC(=O)Nc1ccc(O)cc1)(c1ccccc1)C(F)(F)F (stereo not drawn) | 10.1%
CSc1nnc(-c2cccc(NC(=O)c3ccccc3)c2)n1C | 0.0495%
CCN(CC)S(=O)(=O)c1cc(NC(=O)C(C)N2CC=C(c3ccccc3)CC2)ccc1C (stereo not drawn) | 2.32%
COc1ccc(CNC(=O)C(c2ccco2)N(C(=O)c2snc(C(N)=O)c2N)c2ccccc2OC)cc1 (stereo not drawn) | -15.1%
COc1ccc2c(c1)N(S(=O)(=O)c1ccccc1)CCC2=O | 6.21%
Cc1ccc(-n2c(=O)c3sccc3n(Cc3cc(=O)n4ccccc4n3)c2=O)cc1 | -10.7%
CCOc1ccc(S(=O)(=O)NCCC(=O)Nc2ccncc2)cc1 | -9.76%
Cc1c(/C=N\NC(=O)C2COc3ccccc3O2)c2ccccc2n1C (stereo not drawn) | 12.9%
O=C(O)CC1(CC(=O)Nc2cc3ccccc3cn2)CCCCC1 | 10.1%
NC(=O)c1nsc(C(=O)N(c2ccccc2)C(C(=O)NCC2CCCO2)c2ccc(F)cc2)c1N (stereo not drawn) | 11.4%
O=C(NCCCNC(=O)c1ccccn1)c1ccccn1 | 15%
O=C1CC(=O)C(n2cncn2)C(c2ccc(Cl)cc2)C1 (stereo not drawn) | 19.3%
CCN(C(=O)c1ccc2c(=O)n3c(nc2c1)CCCCC3)c1cc(OC)ccc1OC | 8.16%
Cn1c(NC(=O)C2CC2)cc(=O)n(C)c1=O | -5.09%
O=C(CCCN=C1NS(=O)(=O)c2ccccc21)OCC(=O)c1ccc(F)c(F)c1 | 0.785%
O=C(NCc1ccco1)c1cc(C(=O)C2CC2)c[nH]1 | 0.933%
CCOC(=O)c1c(S(=O)(=O)NCC(=O)Nc2ccccc2)c(C)n(C)c1C | 4.9%
CC(C)c1cc(C(=O)NNC(=S)NCc2ccco2)c(O)c(C(C)C)c1 | 9.95%
CCOc1cc(-c2c(C#N)c(N)nc3c2CCc2ccccc2-3)ccc1O | 10.9%
O=C(O)CCC(=O)Nc1ccc(NC(=O)c2ccc(Cl)cc2Cl)c(Cl)c1 | 18%
COc1ccc2sc3c(=O)[nH]c4ccccc4c3c2c1 | 0.177%
Cn1c(CO)cnc1SCc1ccc(Cl)cc1 | 7.21%
O=C1CCCN1c1ccc(CNS(=O)(=O)c2ccc(F)cc2)cc1 | 12.4%

Compound | hERG current change (%, negative = inhibition) at 1uM
COc1ccc(OCC(=O)N/N=C(\CCC(=O)O)c2cccs2)cc1 | 9.88%
N#CCC(=O)N/N=C\c1ccccc1OC/C=C/c1ccccc1 | 13.3%
COc1ccc(OC)c(/C=C/C(=O)OCC(=O)Nc2ccc(Cl)c(S(=O)(=O)N(C)C)c2)c1 | 14.4%
Cc1ccc(/C=C2\CCC(C3CCCC3)C2=O)cc1 (stereo not drawn) | -1.26%
FC(F)(F)c1ccc2c(c1)NP(=S)(N1CCOCC1)c1nccn1-2 (stereo not drawn) | 6.98%
CCOc1ccc(N(C)S(=O)(=O)c2cc(-c3cc(C)no3)ccc2C(C)C)cc1 | 3.37%
CCC(=NCCc1c(C)[nH]c2ccc(OC(F)(F)F)cc12)C1=C(O)CC(c2ccccc2)CC1=O (stereo not drawn) | 8.44%
CCOC(=O)CCCc1ccc(/C(C)=N/NC(N)=S)cc1 | 9.82%
Cc1cc(NC(=O)CSc2nc3c(C)c(C)ccc3cc2C)no1 | -18%
Cc1cccc(NC(=O)CN(C)C(=O)C2CCCC2)c1C | 12.6%
CC1CN(S(=O)(=O)c2ccccc2)C(C)N1C(=O)N1CCOCC1 (stereo not drawn) | 11.6%
NC(=O)CC(NC(=O)c1cccc(Br)c1)c1ccc(NC2CCN(Cc3ccccc3)CC2)c([N+](=O)[O-])c1 (stereo not drawn) | 19.1%
CC(C)=Cc1oc2ccc([N+](=O)[O-])cc2c1N1CCOCC1 | 2.82%
CSCCC(NC(=O)c1ccc([N+](=O)[O-])cc1Cl)C(=O)OCC(=O)NC1CCCC(C)C1C (stereo not drawn) | -10.9%
CCOc1ccc(NC(=S)NC(C)C(c2ccccc2)N2CCN(C)CC2)cc1 (stereo not drawn) | 3.99%
Cc1cc(NC(=O)CSc2ccc(-c3ccc(Br)cc3)nn2)no1 | 8.41%
COc1ccc(CCN(C)C(=O)c2cnc(C)cn2)cc1OC | 7.46%
Cc1cccc(C(c2c(C)nn(-c3ccccc3)c2N)c2c(C)nn(-c3ccccc3)c2N)c1 | -3.5%
C=CCNc1c2c(nc3ncnn13)CC(C)CC2 (stereo not drawn) | 8.4%
CC1CC(C)CN(C(=O)COC(=O)c2ccc3ccccc3n2)C1 (stereo not drawn) | 13.7%
Cc1cccc(NC(=O)CSc2nnc(-c3ccncc3)n2C)c1 | -8.36%
S=C(NCc1ccccc1)NN1CCOCC1 | 12.1%
C/C(=N\NC(=S)Nc1ccccc1)c1c(O)n(C)c(=O)n(C)c1=O | 12.8%

Compound | hERG current change (%, negative = inhibition) at 1uM
N#Cc1c2n(c3c(=O)n(Cc4ccc(Cl)cc4)cnc13)CCCC2 | -11.9%
CCOCCCNc1nc(=S)[nH]c2cc(OC)c(OC)cc12 | -2%
CCOC(=O)C1CCN(c2ccc([N+](=O)[O-])cc2)CC1 | -23.5%
Cc1nc2ccccc2c(=O)n1/N=C/c1ccccc1OC(F)F | 13.1%
O=C(O)C(F)(F)S(=O)(=O)O | 13.1%
CCCCCCCc1nc2c(=O)n(C)c3ccccc3c2o1 | 9.76%
COc1cc(NC(=O)CSc2ccc3c(c2)OCCO3)cc(OC)c1OC | 11.3%
Cc1occc1C(=O)N1CCCC(CCC(=O)NCc2ccc(F)c(F)c2)C1 (stereo not drawn) | 9.2%
C(=N\N1CCOCC1)/c1nc(-c2ccccc2)n2ccccc12 | 0.84%
O=C(NNC(=O)C1CC=CCC1)c1ccccc1O (stereo not drawn) | 9.37%
COc1ccc(NC(=O)C2CC(=O)N(c3ccccc3Cl)C2)c(OC)c1 (stereo not drawn) | 13.2%
N=C1C(c2ccccc2)=C(O)CN1c1cccc(S(N)(=O)=O)c1 | 11.8%
COc1cc2c(cc1OC)CN(CC(=O)Nc1ccccc1C(=O)NC1CC1)CC2 | -6.04%
CN1CCN(c2ccc(CNS(=O)(=O)c3cccc(F)c3)cc2)CC1 | 13.7%
CCOC(=O)C1CCN(c2ccc(C(N)=O)cc2[N+](=O)[O-])CC1 | 9.09%
O=C(Nc1nccs1)C1CCCN1/C=C/C(=O)C(F)(F)F (stereo not drawn) | 17.1%
CCn1c(SCC(N)=O)nnc1-c1ccc2c(c1)OCO2 | 5.65%
OCC1(Cc2cccc(C(F)(F)F)c2)CCN(Cc2cc(F)cc(F)c2)CC1 | 4.2%
CCc1ccc(Nc2nnc(SCC(=O)c3c(N)n(C4CC4)c(=O)[nH]c3=O)s2)cc1 | -7.87%
COc1cc(NC(=O)c2cc3ccccc3cc2O)c(OC)cc1Cl | 24.4%
CC1CN(Cc2cc(=O)[nH]c(C(C)C)n2)CC(C)O1 (stereo not drawn) | 14.8%
